Experimental data as given in PMC6410080 (Viruses, 2019).

Test system: DID-labelled SFV hemifusion/fusion
Type: cell-based, Semliki Forest virus
Conditions: HeLa Kyoto, 10 μM, 40 min at 37 °C, normalised to DMSO

O=[N+]([O-])c1ccc2c(c1)S(=O)(=O)C=C2 [Stattic]
Inhibition of DID-SFV de-quenching (hemifusion/fusion): More than 50%
